PubChem BioAssay (NCI)
Values joined by “and” are separate entries in the source; they are usually repeats but may differ in a detail not shown here. Identical values can stand only once.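 Cultured in 96-well plates, cells were exposed to test compound for 48 hours across five concentrations. GI50 marks 50% less growth. TGI: total growth inhibition.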

test system: NCI-H322M lung; assay: growth of human tumour cells (NCI), 48 h

| Structure (SMILES) | TGI | GI50 |
| --- | --- | --- |
| CC(=O)Oc1ccc2ccc(=O)oc2c1OC(C)=O | > 100 µM | – |
| CC1(C)CC(=O)C2=C(C1)NC(SSC1=C(C#N)C(c3ccc(Br)cc3)C3=C(CC(C)(C)CC3=O)N1)=C(C#N)C2c1ccc(Br)cc1 (configuration not stated) | > 100 µM and 150 µg/mL | > 150 µg/mL |
| Fc1ccc(CNc2c3ccccc3nc3ccccc23)cc1 | 8.02 µM | 2.39 µM |
| O=C(Nc1ncc(Cc2ccccc2)s1)c1ccc2c(c1)OCCO2 | > 100 µM | 0.0556 µM |
| C[N+](C)(C)CCC(=O)N1C/C(=C\c2ccccc2)C(=O)/C(=C/c2ccccc2)C1 | 28.7 µM | – |
| CCCN(CCC)c1ccc(C=O)cc1 | > 100 µM | > 100 µM |
| Cc1ccc(S(=O)(=O)NC(=O)C2(Br)S(=O)(=O)OCCOS2(=O)=O)cc1 | > 100 µM | – |
| Cc1cc(Cl)ccc1NC(=O)/C(Cl)=C(/Cl)C(=O)O | 29.5 µM | – |
| C[As](C)Sc1ccnc(S[As](C)C)n1 | > 54.8 µM | 29.5 µM |
| COc1ccc(NC(=O)CC/C(CC(=O)c2ccccc2Cl)=N\Nc2nnc(C)n2N)cc1 | > 100 µM | – |
| COc1cc2c(c(N)c1OC)C(=O)/C(=C/c1cc(C)c(O)c(C)c1)C2 | > 100 µM | – |
| O=C(/C=C/c1ccccn1)c1ccccc1O | 4.78 µM | 2.16 µM |
| COc1ccc2nc3cccc([N+](=O)[O-])c3c(NCCN(CCO)CCO)c2c1 | 1.39 µM | 0.11 µM |
| CC(Oc1ccccc1)C(=O)NN (configuration not stated) | > 100 µM | – |
| CCN(CC)CCCC(C)NC(=O)c1cc(-c2nccn2C)nc2ccc(C)cc12 (configuration not stated) | > 100 µM | – |
| CCOC(=O)C1=C(OS(=O)(=O)C(F)(F)F)CCCC1 | > 100 µM | – |
| OC(c1ccc(F)cc1)C(F)(F)c1nc(-c2ccccc2)no1 (configuration not stated) | 99.2 µM | – |
| Cn1c(N(CCO)CCO)cnc1[N+](=O)[O-] | > 100 µM | – |
| COc1cc(C2SCC(=O)N2c2ccc(-c3ccc(-n4c(-c5ccccc5)nc5ccccc5c4=O)cc3)cc2)ccc1O (configuration not stated) | > 100 µM | – |
| CC1C(=O)C(C)C(c2cccs2)N(N=O)C1c1cccs1 (configuration not stated) | > 100 µM | – |
| O=c1c2cc(Br)ccc2[nH]c(=S)n1-c1ccc(Br)cc1 | > 100 µM | – |
| CCOc1ccc(C2=C(Cl)c3cc(OC)c(OC)cc3C2Cl)cc1 (configuration not stated) | > 100 µM | – |
| COc1cc(C2c3cc4c(cc3OC3(O)COC(=O)C23)OCO4)cc(OC)c1OC (configuration not stated) | > 100 µM | – |
| CS(=O)(=O)N1CCN(Cc2cc3nc(-c4cccc5[nH]ncc45)nc(N4CCOCC4)c3s2)CC1 | > 100 µM | 0.895 µM and 0.267 µM |

| Structure (SMILES) | TGI | GI50 |
| --- | --- | --- |
| CCOCCc1c(O)nc(SC)[nH]c1=O | > 100 µM | > 100 µM |
| COC(=O)CSc1ccccc1 | > 100 µM | – |
| C/C(=N\Nc1ccc2ccccc2n1)c1ccccc1O | > 100 µM | – |
| O=C1Nc2cc(Cl)ccc2Oc2cc(Oc3ccccc3)ccc21 | > 100 µM | 9.98 µM |
| C[C@]12CCC3[C@@H](C[C@H]4OC(=O)[C@@]35CCC(=O)C=C45)C1CCC2=O (some centres not stated) | > 100 µM | – |
| COc1ccc(C2=NN(C(=O)c3ccccc3)C(O)(c3cc(F)c(Cl)cc3Cl)C2)cc1OC (configuration not stated) | > 100 µM | – |
| CC1=NN(c2nc(N)nc(C(C)Sc3cc(Cl)c(C)cc3S(N)(=O)=O)n2)C(C)(C)C1 (configuration not stated) | > 10 µM | – |
| CNc1nnnn1C1OC(CO)C(O)C1O (configuration not stated) | > 100 µM | – |
| COc1ccc2c(CC(=O)O)cc(=O)oc2c1 | > 100 µM | – |
| O=C(N1CCOCC1)C1(c2ccccc2)CCNCC1 | > 100 µM | – |
| COc1cc(-c2cc(/C=C/C(=O)c3ccc4c(c3)OCO4)[nH]n2)cc(OC)c1OC | 19.1 µM | 3.01 µM |
| Nc1ncnc2c1c(-c1cccc(OCc3ccccc3)c1)cn2C1CC(CN2CCCC2)C1 (configuration not stated) | 16.9 µM | 2.98 µM |
| CCOC(=O)c1c[nH]c2c(OCc3ccccc3)c3ccccc3c(O)c2c1=O | 82.2 µM | 23 µM |
| COc1ccc(N2C(=O)CSC2c2cc3cc(Br)ccc3nc2Cl)cc1 (configuration not stated) | > 50 µM | – |
| O=C(Nc1ccc(Cl)c(Cl)c1)C(=O)Nn1c(=S)[nH]c2ccccc2c1=O | > 100 µM | – |
| CC(C)(C)c1ccc(-c2nc3ccccc3c(=O)o2)cc1 | > 100 µM | – |
| C[C@@H](C(=O)O)c1ccc(-c2ccccc2)c(F)c1 | > 100 µM | – |
| COc1ccccc1CNCCCN1C(=O)c2ccc3c4c(ccc(c24)C1=O)C(=O)N(CCCNCCCCNCCCCN)C3=O | 8.81 µM | 1.35 µM |
| Cc1ccccc1N=Cc1ccc(N(CCC#N)S(=O)(=O)c2ccccc2)cc1 | > 100 µM | – |
| COc1ccc2c(C)cc(N/N=C/c3sccc3C)nc2c1 | 15.9 µM | – |
| Cc1nc2c(=O)[nH]c3ccccc3c2o1 | > 100 µM | – |
| CCCn1cc(C2=C(c3cn(C)c4ccccc34)C(=O)NC2=O)c2ccccc21 | > 23.5 µM | 2.32 µM |
| C=C1C(=O)O[C@H]2[C@H]1CC/C(C=Nc1ccc(C(F)(F)F)cc1N)=C\CC[C@@]1(C)O[C@@H]21 | 24.4 µM | 11.3 µM |
| CSC(=S)N/N=C/c1ccccc1 | > 100 µM | – |

| Structure (SMILES) | TGI | GI50 |
| --- | --- | --- |
| CC1(C)Cc2cccc(OCC(O)CN3CCN(c4ccc(F)cc4)CC3)c2O1 (configuration not stated) | > 50 µM | > 50 µM |
| Brc1ccccc1/C=C\C1(c2ccccc2)OCCO1 | 30 µM | – |
| CC1=C2C(=O)C3[C@@H](CCC4=CC(=O)CC[C@@]43C)C2CC[C@]12O[C@@H]1C[C@H](C)CN[C@H]1[C@H]2C (some centres not stated) | > 100 µM | – |
| C=C[C@@]1(C)CC2CC[C@]3(C)C(C)=CC(=O)CC3[C@]2(C)CC1O (some centres not stated) | > 100 µM | – |
| COc1ccc(S(=O)(=O)N2CCN(C(=O)OCc3ccccc3)CC2C(=O)NO)cc1 (configuration not stated) | > 25 µM | > 25 µM |
| NCCCCC(N)C(=O)N1CCN(c2nc(N3CCCC3)c3nc(Cl)c(NCc4ccccc4)nc3n2)CC1 (configuration not stated) | 33.6 µM | – |
| CC/C(Cl)=N\OC(=O)Nc1ccccc1OC(F)(F)F | 35.3 µM | – |
| CSc1c(CC(=O)O)n(Cc2ccccc2)c2ccccc12 | > 100 µM | – |
| CN(C)CCCNC(=O)c1cc(NC(=O)CCNC(=O)c2ccc3c(c2)C(=O)c2ccccc2C3=O)cn1C | > 100 µM | 30.3 µM |
| CC(N)C(=O)c1ccc(O)cc1 (configuration not stated) | > 100 µM | – |
| CSC(=NC1CC(n2cc(C)c(=O)[nH]c2=O)OC1CO)NC#N (configuration not stated) | > 100 µM | – |
| CC(=O)c1ccc(N2CCN(c3c(O)c4c(c(O)c3Cl)C(=O)C=CC4=O)CC2)cc1 | 31.3 µM | – |
| C#CC[C@@H]1C[C@]2(C)[C@H]3CC[C@@H]4[C@H]5[C@H](C(=C)C)CC[C@]5(C(=O)O)CC[C@@]4(C)[C@]3(C)CC[C@H]2C(C)(C)[C@H]1O | 16.7 µM | 3.09 µM |
| CCCCCCCCCCCC1=NC(C)(C)CN1CCO | 27.7 µM | 12.4 µM |
| C[C@H](CCC(=O)O[C@@H]1CC[C@@]2(C)C(CC[C@H]3[C@@H]4CC[C@H]([C@H](C)CCc5nc6ccccc6[nH]5)[C@@]4(C)CC[C@@H]32)C1)[C@H]1CC[C@H]2[C@@H]3CCC4C[C@H](O)CC[C@]4(C)[C@H]3CC[C@]12C (some centres not stated) | > 100 µM | – |
| Cc1c(C)c(S(=O)(=O)N(CCCCCN)OCCCN)c(C)c2c1OC(C)(C)CC2 | 24.7 µM | – |
| CC(=O)c1c2c(cc3c1CC1(Cc4cc5c(cc4C1=O)CCC5)C3)CCC2 (configuration not stated) | > 100 µM | – |
| Nc1ncnc2c1ncn2[C@@H]1C[C@H]1CO | > 100 µM | – |
| [N-]=[N+]=Nc1ccccc1-[n+]1noc([O-])c1Br | > 100 µM | – |
| COc1ccc2nc3cc(Cl)ccc3c(NCCC(=O)OCC(O)C(O)C(O[C@H](C)C(=O)NC(C)C(=O)NC(CCC(N)=O)C(=O)OCc3ccccc3)C(C=O)NC(C)=O)c2c1 (some centres not stated) | 33.9 µM | – |
| O=C1NCC2(CCN(Cc3ccccc3)CC2)N1 | > 100 µM | – |
| COc1ccc2c(c1)CCc1cnn(C3OC(COC(C)=O)C(OC(C)=O)C(OC(C)=O)C3OC(C)=O)c1-2 (configuration not stated) | > 100 µM | – |
| CN(C)C(=S)N/N=C\C(=N/NC(=S)N(C)C)c1ccccc1 | > 100 µM | – |
| O=C(N/N=C/c1coc2ccc(Cl)cc2c1=O)c1ccncc1 | 95 µM | 30.1 µM |

| Structure (SMILES) | TGI | GI50 |
| --- | --- | --- |
| COc1ccc(-n2nnc3c(C#N)c(-c4ccccc4)c(C)n3c2=O)cc1 | > 100 µM | – |
| CC1(C)CC[C@]2(C(=O)n3ccnc3)CC[C@]3(C)[C@H](C(=O)C=C4[C@@]5(C)C=C(C#N)C(=O)C(C)(C)[C@@H]5CC[C@]43C)[C@@H]2C1 | 0.0625 µM | < 0.0177 µM |
| O=c1[nH]c(=O)n(C2CC(O)C(COP(=O)(O)OC3CC(n4cc(F)c(=O)[nH]c4=O)OC3COP(=O)(O)OC3CC(n4cc(F)c(=O)[nH]c4=O)OC3COP(=O)(O)OC3CC(n4cc(F)c(=O)[nH]c4=O)OC3COP(=O)(O)OC3CC(n4cc(F)c(=O)[nH]c4=O)OC3COP(=O)(O)OC3CC(n4cc(F)c(=O)[nH]c4=O)OC3COP(=O)(O)OC3CC(n4cc(F)c(=O)[nH]c4=O)OC3COP(=O)(O)OC3CC(n4cc(F)c(=O)[nH]c4=O)OC3COP(=O)(O)OC3CC(n4cc(F)c(=O)[nH]c4=O)OC3COP(=O)(O)OC3CC(n4cc(F)c(=O)[nH]c4=O)OC3CO)O2)cc1F (configuration not stated) | > 50 µM | – |
| CN(C)CCSC(=Nc1ccccc1)N1C=COC=C1 | > 100 µM | – |
| C=CCCC(O)c1ccc(C(O)CCCCCCCCCCCC)o1 (configuration not stated) | > 100 µM | 71.8 µM |
| C(=N/Nc1ncnc2nc[nH]c12)/c1ccccn1 | 22.6 µM | 0.199 µM |
| O=C1OC(c2ccccc2)C2CC3CC4(CCC3CN12)OCCO4 (configuration not stated) | > 100 µM | – |
| COCC[N+](CCNC(=O)c1cccc2c(N)c3cccc(C)c3nc12)(CCOC)Cc1ccc([N+](=O)[O-])cc1 | 62.5 µM | – |
| COc1c(C(=O)/C(=N/Nc2ccccc2)C(C)=O)c(O)c(OC)c2occc12 | > 100 µM | – |
| Nc1ccn([C@H]2CO[C@@H](CO)O2)c(=O)n1 | > 100 µM | – |
| Cc1c(/C=N/NC(=O)c2ccccc2)c(=O)n(-c2ccccc2)n1C | > 100 µM | – |
| Cc1c2ccccc2c(CO)c2cc(F)c3ccccc3c12 | > 100 µM | – |
| O=C(/C=C/C=C/c1ccccc1)c1ccc(Nc2nc(Nc3ccccc3)nc(Nc3ccccc3)n2)cc1 | > 100 µM | > 100 µM |
| CCCCOP(=O)(OCCCC)/C(C#N)=C/c1ccc(C)o1 | > 100 µM | – |
| COC(=O)C(/C(=N/N)C(=O)Nc1ccc(C)c(C)c1)c1nc2ccc(Cl)cc2[nH]c1=O (configuration not stated) | > 100 µM | – |
| O=C(O)c1cc(N/C=C2\C(=O)c3ccccc3OC2O)ccc1O (configuration not stated) | > 150 µg/mL | 50 µg/mL |
| COc1ccc(OC)c(C2CCCc3c2cnc2nc(N)nc(N)c32)c1 (configuration not stated) | > 100 µM | – |
| COc1ccc(-c2nc(N)c(C#N)c3c2CCSc2ccc(C)cc2-3)cc1OC | > 100 µM | – |
| COc1ccc(-c2cc(-c3ccc(O)cc3)nc3nc(=S)[nH]c(N)c23)cc1 | 86.4 µM | 25.5 µM |
| CC1(C)CC(=O)C(CC(C(=O)C(=O)Nc2cc(C(F)(F)F)ccc2Cl)C(=O)c2ccco2)C(=O)C1 (configuration not stated) | > 100 µM | – |
| CN(C)c1ccccc1CC(c1c[nH]c2ccccc12)c1c[nH]c2ccccc12 | 27.3 µM | – |
| Cn1c(=O)nc2n(-c3ccc(F)cc3)c3ccccc3nc-2c1=O | 85 µM | – |
